Reference: PubChem BioAssay AID248 (DTP/NCI, 2004)
Toxic doses and inconclusive results are not listed. Some entries of the source have several records that differ or are many. They are shown here; other results are not. The source may hold further records. Values that stand side by side are repeated measurements (runs, samples, wells, individuals or studies).

Test system: L1210 leukemia ip in BDF1 mice, survival T/C
Test: NCI In Vivo Anticancer Drug Screen. Data for tumor model L1210 Leukemia (intraperitoneal) in B6D2F1 (BDF1) mice
Conditions: endpoint: mean survival time, higher = longer survival

With ClCCC(c1ccccc1)N1CCCCC1 (stereo not drawn) as the compound, how does the T/C (dose: 100.0 mg/kg/injection, schedule: Q01DX001 (ip), vehicle: saline) read?
The T/C was 92 % of control, 101 % of control, 168 % of control.

For CN=C(NC)c1ccc(NC(=O)c2ccc(C(=O)Nc3ccc(C(=NC)NC)cc3)cc2)cc1, which T/C (dose: 0.45 mg/kg/injection, schedule: Q01DX Z (ip), vehicle: methylcellulose (MC)) is on record?
The T/C was 104 % of control and 158 % of control.

Which T/C (dose: 10.0 mg/kg/injection, schedule: Q01DX001 (ip), vehicle: saline) does the source give for CCC(=O)NC1=C(N2CC2)C(=O)C(NC(=O)CC)=C(N2CC2)C1=O here?
Its T/C is 115 % of control and 191 % of control.

For CCN(CC)P(=O)(N1CC1(C)C)N1CC1(C)C (stereo not drawn), which T/C (dose: 200.0 mg/kg/injection, schedule: Q01DX001 (ip), vehicle: saline) is on record?
The T/C was 115 % of control and 155 % of control.

With COc1cc(-c2ccc(Nc3ccccc3C(=O)O)c(OC)c2)ccc1Nc1ccccc1C(=O)O as the compound, how does the T/C (dose: 150.0 mg/kg/injection, schedule: Q01DX Z (ip), vehicle: saline) read?
The T/C was 101 % of control and 156 % of control.

Which T/C (dose: 1.8 mg/kg/injection, schedule: Q01DX Z (ip), vehicle: methylcellulose (MC)) does the source give for CC1CN1c1cc(O)c(N2CC2C)cc1O (stereo not drawn) here?
Its T/C is 116 % of control, 117 % of control, 160 % of control.

How did the T/C (dose: 100.0 mg/kg/injection, schedule: Q01DX009 (oral), vehicle: saline) turn out when C=CCNC(=O)NCC=C was run?
The T/C was 97 % of control and 160 % of control.

Which T/C (dose: 30.0 mg/kg/injection, schedule: Q01DX009 (ip), vehicle: saline) does the source give for C1OC1CN1CCC(C2CCN(CC3CO3)CC2)CC1 (stereo not drawn) here?
The T/C was 107 % of control and 177 % of control.
